Eight molecules from PMC6570896 can be followed below.

By UniProt entry, the sequences of proteins in these tests, tags left out.
UniProt Q9FXM3: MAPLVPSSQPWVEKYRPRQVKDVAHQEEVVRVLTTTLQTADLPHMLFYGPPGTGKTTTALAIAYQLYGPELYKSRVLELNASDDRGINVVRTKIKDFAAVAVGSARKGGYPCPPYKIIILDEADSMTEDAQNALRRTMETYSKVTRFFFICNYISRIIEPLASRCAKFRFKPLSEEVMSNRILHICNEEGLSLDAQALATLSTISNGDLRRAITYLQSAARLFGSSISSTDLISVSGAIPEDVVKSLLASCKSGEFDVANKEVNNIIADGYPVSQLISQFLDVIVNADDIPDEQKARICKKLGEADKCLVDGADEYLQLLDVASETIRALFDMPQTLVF
UniProt Q93ZX1: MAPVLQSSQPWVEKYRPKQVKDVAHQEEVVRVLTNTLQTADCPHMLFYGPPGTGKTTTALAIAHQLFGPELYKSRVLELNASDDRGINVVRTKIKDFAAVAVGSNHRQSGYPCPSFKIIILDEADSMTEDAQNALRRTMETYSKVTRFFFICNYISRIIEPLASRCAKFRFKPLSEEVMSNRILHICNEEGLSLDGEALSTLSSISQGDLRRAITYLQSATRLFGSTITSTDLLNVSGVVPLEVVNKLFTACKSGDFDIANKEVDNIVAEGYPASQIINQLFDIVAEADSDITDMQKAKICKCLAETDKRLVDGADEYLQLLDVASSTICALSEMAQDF

These are yes or no findings as the source states them, for the method shown. Binding seen in cells or lysates may run through a third protein. Some entries that bind do so weakly or less than the wild type. For some of these results: Sequences can lack the tags named with a protein.

What all share (experiment): split reporter; BiFC: fusions to YFP^N (1-155 aa) and YFP^C (156-239 aa) co-expressed transiently in Nicotiana benthamiana leaf epidermal cells; YFP seen by confocal microscopy
Assay [1] deals with T1, OsRFC1-YFP^N (rice (Oryza sativa)) (UniProt Q2R2B4).
T1 sequence: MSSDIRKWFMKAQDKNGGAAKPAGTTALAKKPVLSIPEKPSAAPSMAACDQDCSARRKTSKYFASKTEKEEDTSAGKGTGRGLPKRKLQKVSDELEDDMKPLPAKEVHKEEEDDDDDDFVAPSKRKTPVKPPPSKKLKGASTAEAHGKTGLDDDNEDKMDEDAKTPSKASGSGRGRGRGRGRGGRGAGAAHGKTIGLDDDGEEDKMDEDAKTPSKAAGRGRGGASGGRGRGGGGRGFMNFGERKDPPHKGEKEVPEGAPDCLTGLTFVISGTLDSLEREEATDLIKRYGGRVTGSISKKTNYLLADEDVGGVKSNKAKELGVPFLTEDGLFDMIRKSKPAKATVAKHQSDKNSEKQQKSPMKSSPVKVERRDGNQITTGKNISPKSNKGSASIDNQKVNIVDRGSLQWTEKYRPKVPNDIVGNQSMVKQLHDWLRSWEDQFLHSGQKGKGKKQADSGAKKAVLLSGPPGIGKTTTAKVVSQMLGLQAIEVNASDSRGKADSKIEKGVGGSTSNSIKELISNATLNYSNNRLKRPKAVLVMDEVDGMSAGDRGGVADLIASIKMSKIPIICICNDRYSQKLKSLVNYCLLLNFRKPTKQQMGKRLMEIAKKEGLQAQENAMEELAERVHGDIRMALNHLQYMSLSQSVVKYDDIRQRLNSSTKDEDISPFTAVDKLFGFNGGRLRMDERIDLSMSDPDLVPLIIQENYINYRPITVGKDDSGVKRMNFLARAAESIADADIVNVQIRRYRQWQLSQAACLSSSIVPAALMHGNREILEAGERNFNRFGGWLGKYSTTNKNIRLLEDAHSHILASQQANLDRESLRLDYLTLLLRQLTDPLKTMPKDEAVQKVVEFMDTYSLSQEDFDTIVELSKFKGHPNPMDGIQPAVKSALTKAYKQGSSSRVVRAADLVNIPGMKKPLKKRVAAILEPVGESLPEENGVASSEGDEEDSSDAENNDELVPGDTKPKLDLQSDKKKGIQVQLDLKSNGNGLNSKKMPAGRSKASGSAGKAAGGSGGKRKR

Assay [2] addresses T2, OsRFC5-YFP^N (rice (Oryza sativa)) (UniProt Q852K3).
T2 sequence: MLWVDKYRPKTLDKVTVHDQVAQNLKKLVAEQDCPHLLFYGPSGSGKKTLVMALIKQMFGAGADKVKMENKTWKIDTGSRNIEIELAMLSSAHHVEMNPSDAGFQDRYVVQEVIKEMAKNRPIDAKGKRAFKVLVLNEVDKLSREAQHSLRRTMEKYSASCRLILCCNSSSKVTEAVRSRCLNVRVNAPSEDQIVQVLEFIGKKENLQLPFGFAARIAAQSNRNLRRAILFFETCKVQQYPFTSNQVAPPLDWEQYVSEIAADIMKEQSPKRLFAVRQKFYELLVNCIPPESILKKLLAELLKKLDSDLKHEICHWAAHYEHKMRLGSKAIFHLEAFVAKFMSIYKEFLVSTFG

The target of assay [3] is OsRFC2-YFP^N (rice (Oryza sativa)) (UniProt Q9FXM3).
Assay [4] has as its target T3, OsRFC3-YFP^N (rice (Oryza sativa)) (UniProt Q6YZ54).
T3 sequence: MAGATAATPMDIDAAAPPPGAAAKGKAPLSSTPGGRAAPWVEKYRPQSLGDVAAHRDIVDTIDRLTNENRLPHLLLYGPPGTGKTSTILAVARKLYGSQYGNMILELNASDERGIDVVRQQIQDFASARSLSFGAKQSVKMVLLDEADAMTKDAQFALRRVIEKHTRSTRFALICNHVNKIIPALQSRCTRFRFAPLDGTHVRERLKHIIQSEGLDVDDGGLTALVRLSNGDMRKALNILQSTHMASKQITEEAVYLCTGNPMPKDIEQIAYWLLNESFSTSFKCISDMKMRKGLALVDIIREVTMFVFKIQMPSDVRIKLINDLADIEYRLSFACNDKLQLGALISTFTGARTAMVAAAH

For assay [5], the target named is T4, OsRFC4-YFP^N (rice (Oryza sativa)) (UniProt Q7XRX1).
T4 sequence: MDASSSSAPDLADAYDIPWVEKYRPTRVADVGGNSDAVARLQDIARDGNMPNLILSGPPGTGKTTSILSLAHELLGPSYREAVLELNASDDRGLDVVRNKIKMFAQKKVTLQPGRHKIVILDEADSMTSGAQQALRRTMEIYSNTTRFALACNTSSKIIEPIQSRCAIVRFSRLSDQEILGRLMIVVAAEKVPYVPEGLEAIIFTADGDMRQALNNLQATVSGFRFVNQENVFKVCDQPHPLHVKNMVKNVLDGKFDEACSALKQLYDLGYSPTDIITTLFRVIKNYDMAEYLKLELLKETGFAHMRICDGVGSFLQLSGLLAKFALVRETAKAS

In assay [6] the target is AtRFC4-YFP^N (Arabidopsis thaliana) (UniProt Q93ZX1).
For assay [7], the target named is AtPCNA1-YFP^C (Arabidopsis thaliana) (UniProt Q9M7Q7).
For assay [8], the target named is T5, AtRFC2-YFP^N (Arabidopsis thaliana) (UniProt Q9CAM7).
T5 sequence: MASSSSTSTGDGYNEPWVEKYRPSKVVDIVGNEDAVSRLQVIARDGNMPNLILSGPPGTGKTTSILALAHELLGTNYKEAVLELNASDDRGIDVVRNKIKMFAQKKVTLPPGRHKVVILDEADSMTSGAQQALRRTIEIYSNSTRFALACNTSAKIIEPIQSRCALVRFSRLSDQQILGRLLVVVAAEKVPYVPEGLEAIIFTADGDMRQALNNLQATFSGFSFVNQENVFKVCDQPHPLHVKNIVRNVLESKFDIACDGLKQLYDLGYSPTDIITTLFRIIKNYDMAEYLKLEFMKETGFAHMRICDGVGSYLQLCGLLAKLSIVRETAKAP

The target of assay [9] is AtPCNA2-YFP^C (Arabidopsis thaliana) (UniProt Q9ZW35).
In assay [10] the target is AtPCNA1 Δ244–263 (Arabidopsis thaliana) (UniProt Q9M7Q7).
The target of assay [11] is AtPCNA2 Δ245–264 (Arabidopsis thaliana) (UniProt Q9ZW35).
Assay [12] concerns the target AtPCNA1 Δ1–120 (Arabidopsis thaliana) (UniProt Q9M7Q7).

B1: OsPCNA Δ1–20-YFP^N (domain or fragment, UniProt P17070 21-263)
chain: ELVTDANFDCSGTGFSLQAMDSSHVALVALLLRSEGFEHYRCDRNLSMGMNLNNMAKMLRCAGNDDIITIKADDGSDTVTFMFESPNQDKIADFEMKLMDIDSEHLGIPDSEYQAIVRMPSSEFSRICKDLSSIGDTVIISVTKEGVKFSTAGDIGTANIVCRQNKTVDKPEDATIIEMQEPVSLTFALRYMNSFTKASPLSEQVTISLSSELPVVVEYKIAEMGYIRFYLAPKIEEDEEMKS
As to B1, the binding entry in [1] is listed as “binds”; in [2] it was “no binding”; in assay [3] it was “no binding”; in [4], “binds”; in [5], “binds”.

B2: AtPCNA1 Δ244–263 (domain or fragment, UniProt Q9M7Q7 1-243)
chain: MLELRLVQGSLLKKVLESIKDLVNDANFDCSSTGFSLQAMDSSHVALVSLLLRSEGFEHYRCDRNLSMGMNLGNMSKMLKCAGNDDIITIKADDGGDTVTFMFESPTQDKIADFEMKLMDIDSEHLGIPDAEYHSIVRMPSNEFSRICKDLSSIGDTVVISVTKEGVKFSTAGDIGTANIVLRQNTTVDKPEDAIVIEMKEPVSLSFALRYMNSFTKATPLSDTVTISLSSELPVVVEYKVAE
Regarding B2, the binding entry in assay [6], in assay [7], in assay [8], in assay [9] and in assay [10] was “binds” in each case.

B3: AtPCNA2 Δ245–264 (domain or fragment, UniProt Q9ZW35 1-244)
chain: MLELRLVQGSLLKKVLEAVKDLVNDANFDCSTTGFSLQAMDSSHVALVSLLLRSEGFEHYRCDRNLSMGMNLGNMSKMLKCAGNDDIITIKADDGSDTVTFMFESPTQDKIADFEMKLMDIDSEHLGIPDAEYHSIVRMPSGEFSRICKDLSSIGDTVVISVTKEGVKFSTAGDIGTANIVLRQNTTVDKPEDAIVIEMNEPVSLSFALRYMNSFTKATPLSETVTISLSSELPVVVEYKVAEM
In the case of B3, the binding entry in assay [6], in assay [7], in [11], in assay [8] and in [9] was “binds” each time.

B4: AtPCNA1 Δ144–263 (domain or fragment, UniProt Q9M7Q7 1-143)
chain: MLELRLVQGSLLKKVLESIKDLVNDANFDCSSTGFSLQAMDSSHVALVSLLLRSEGFEHYRCDRNLSMGMNLGNMSKMLKCAGNDDIITIKADDGGDTVTFMFESPTQDKIADFEMKLMDIDSEHLGIPDAEYHSIVRMPSNE
For B4, the binding entry is “no binding” in assay [6] and “binds” in assay [8].

B5: AtPCNA2 Δ145–264 (domain or fragment, UniProt Q9ZW35 1-144)
chain: MLELRLVQGSLLKKVLEAVKDLVNDANFDCSTTGFSLQAMDSSHVALVSLLLRSEGFEHYRCDRNLSMGMNLGNMSKMLKCAGNDDIITIKADDGSDTVTFMFESPTQDKIADFEMKLMDIDSEHLGIPDAEYHSIVRMPSGEF
On to B5, for which the binding entry in [6] and in [8] was “no binding” in each case.

B6: AtPCNA1 Δ128–263-YFP^N (domain or fragment, UniProt Q9M7Q7 1-127)
chain: MLELRLVQGSLLKKVLESIKDLVNDANFDCSSTGFSLQAMDSSHVALVSLLLRSEGFEHYRCDRNLSMGMNLGNMSKMLKCAGNDDIITIKADDGGDTVTFMFESPTQDKIADFEMKLMDIDSEHLG
For B6, the binding result in assay [6] and in assay [8] was “no binding” each time.

B7: AtPCNA1 Δ1–120 (domain or fragment, UniProt Q9M7Q7 121-263)
chain: IDSEHLGIPDAEYHSIVRMPSNEFSRICKDLSSIGDTVVISVTKEGVKFSTAGDIGTANIVLRQNTTVDKPEDAIVIEMKEPVSLSFALRYMNSFTKATPLSDTVTISLSSELPVVVEYKVAEMGYIRYYLAPKIEEEEDTNP
For B7, the binding entry in [6], in [12], in assay [7], in assay [8] and in assay [9] was “binds” throughout.

B8: OsPCNA Δ64–263 (domain or fragment, UniProt P17070 1-63)
chain: MLELRLVQGSLLKKVLEAIRELVTDANFDCSGTGFSLQAMDSSHVALVALLLRSEGFEHYRCD
B8: the binding entry in assay [1], in [2], in assay [3], in assay [4] and in assay [5] was “no binding” in each case.
